# Reference: patent publication US20200400567A1, “FUSION POLYPEPTIDE” (PEKING UNIVERSITY, priority 2017, published 2020)
# Columns and labels:
# Format in all cases: cell-based
# [1] = target: T1, G protein-coupled receptor (M3R, HRH1, OxtR, DRD2, B2AR, HTR4) (Homo sapiens, UniProt P14416); assay: GRAB sensors with fluorescent protein at the GPCR C-terminus, perfusion with receptor agonists in HEK293T cells; conditions: 20 μM Dopamine
# T1 construct: expressed in transfected cells; host or cells: HEK293T
# T1 sequence (P14416 with tags, fused parts or gaps): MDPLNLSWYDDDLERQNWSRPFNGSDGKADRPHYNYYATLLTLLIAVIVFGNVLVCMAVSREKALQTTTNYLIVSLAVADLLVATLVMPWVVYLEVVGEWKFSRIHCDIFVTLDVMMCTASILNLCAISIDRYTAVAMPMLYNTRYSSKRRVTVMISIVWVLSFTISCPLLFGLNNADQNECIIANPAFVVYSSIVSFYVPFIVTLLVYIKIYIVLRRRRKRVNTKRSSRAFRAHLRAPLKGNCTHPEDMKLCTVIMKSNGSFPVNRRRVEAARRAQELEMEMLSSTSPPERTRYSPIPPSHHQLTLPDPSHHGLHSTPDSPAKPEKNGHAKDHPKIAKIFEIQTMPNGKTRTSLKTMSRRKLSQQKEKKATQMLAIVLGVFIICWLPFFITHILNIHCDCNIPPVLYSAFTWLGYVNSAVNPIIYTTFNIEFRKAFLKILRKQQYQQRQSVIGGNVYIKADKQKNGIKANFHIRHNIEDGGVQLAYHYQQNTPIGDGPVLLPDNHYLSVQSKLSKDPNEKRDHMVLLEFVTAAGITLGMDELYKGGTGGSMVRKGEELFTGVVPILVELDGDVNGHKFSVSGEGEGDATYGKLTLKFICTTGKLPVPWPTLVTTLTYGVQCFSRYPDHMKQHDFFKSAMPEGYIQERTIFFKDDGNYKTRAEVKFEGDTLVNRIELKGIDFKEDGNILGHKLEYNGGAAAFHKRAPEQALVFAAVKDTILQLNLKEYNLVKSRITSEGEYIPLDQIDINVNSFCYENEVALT
# Description: Based on the previously constructed acetylcholine fluorescent sensor GRAB-ACh2.0, the portion of the polypeptide linkers and cpEGFP in the third intracellular loop was inserted after the position 580 of the C-terminus sequence of the human muscarinic acetylcholine receptor M3R protein, and Gq20 peptide segment and TS and ER export sequences were connected to the end of the M3R protein to obtain a fusion peptide acetylcholine sensor GRAB-ACh-Cter580 with a fluorescent protein fused at the C-terminus.
# Next, the method of constructing a chimeric receptor was used to construct fusion polypeptide sensors with a fluorescent protein at the C-terminus of different G protein-coupled receptors. The three sites, K567, R568 and R569, at the C-terminus of GRAB-ACh-Cter580 were selected as the cutting sites and labeled as C1, C2 and C3, respectively. After cutting, the multiple C-terminus sequences containing fluorescent protein were fused to HRH1 (SEQ ID NO: 27), OxtR (SEQ ID NO: 29), DRD2, B2AR, and HTR4 (SEQ ID NO: 28) at specific positions, respectively. Changes in signal generated by these fusion polypeptides in perfusion experiments with corresponding receptor agonists were observed.
# [2] = target: human ADRA2A receptor; conditions: NE dose-dependent curve; read-out: ligand affinity
# Experimental: The perfusion system was set on a microscope, and including a solution-introduced system, an imaging cell, and a suction pump. During the perfusion process, the imaging cell was placed above the objective lens of the inverted microscope, and the slide with cultured cells was placed in the cell. The perfusion experiments of different drugs were performed by controlling the switches of the different pipes of the solution-introduced system. The perfusion speed was set to one drop or so per second. In order to ensure the stability of the focal plane, the liquid level was kept constant at all times, and the flow rate of each solution was adjusted accordingly. The aspiration speed was adjusted to maintain the liquid level in the cell over the slide. […]
# After the end of the program, the time-fluorescence intensity data sheet was exported. The background was subtracted from the ROI to get the corresponding fluorescence value Ft, and the average value of the fluorescence value before adding the drug was used as the starting fluorescence F0 to calculate […]
# Fluorescence imaging data was processed using ImageJ software. For the fluorescence performance of GRAB sensors in HEK293T cells and neurons, the entire cell body was selected as the data processing region. The change in the fluorescence signal was usually indicated by its relative intensity change. […]
# [3] = system: human ADRA2A receptor; assay: Response kinetics of GRAB-NE2.2 by photolysis of NPEC-caged-NE; conditions: 405 nm photolysis of 100 μM NPEC-NE
Molecule,change (decrease) in fluorescence signal [1] [%],EC50 [2] [nM],change in fluorescence signal [3] [%]
"GRAB-DA-Cter580: GRAB-ACh-Cter580 C-terminus from C2 site inserted after 441 L of DRD2, SEQ ID NO: 18 (protein, GRAB-DA-Cter580) METDTLLLWVLLLWVPGSTGDTSLYKKVGTDPLNLSWYDDDLERQNWSRPFNGSDGKADRPHYNYYATLLTLLIAVIVFGNVLVCMAVSREKALQTTTNYLIVSLAVADLLVATLVMPWVVYLEVVGEWKFSRIHCDIFVTLDVMMCTASILNLCAISIDRYTAVAMPMLYNTRYSSKRRVTVMISIVWVLSFTISCPLLFGLNNADQNECIIANPAFVVYSSIVSFYVPFIVTLLVYIKIYIVLRRRRKRVNTKRSSRAFRAHLRAPLKGNCTHPEDMKLCTVIMKSNGSFPVNRRRVEAARRAQELEMEMLSSTSPPERTRYSPIPPSHHQLTLPDPSHHGLHSTPDSPAKPEKNGHAKDHPKIAKIFEIQTMPNGKTRTSLKTMSRRKLSQQKEKKATQMLAIVLGVFIICWLPFFITHILNIHCDCNIPPVLYSAFTWLGYVNSAVNPIIYTTFNIEFRKAFLKILRRKQQYQQRQSVIGGNVYIKADKQKNGIKANFHIRHNIEDGGVQLAYHYQQNTPIGDGPVLLPDNHYLSVQSKLSKDPNEKRDHMVLLEFVTAAGITLGMDELYKGGTGGSMVRKGEELFTGVVPILVELDGDVNGHKFSVSGEGEGDATYGKLTLKFICTTGKLPVPWPTLVTTLTYGVQCFSRYPDHMKQHDFFKSAMPEGYIQERTIFFKDDGNYKTRAEVKFEGDTLVNRIELKGIDFKEDGNILGHKLEYNGGAAAFHKRAPEQALVFAAVKDTILQLNLKEYNLVKSRITSEGEYIPLDQIDINVNSFCYENEVALT",20,–,–
"GRAB-NE2.2: GRAB-NE2.1 with T373K mutation, SEQ ID NO: 24 (protein, GRAB-NE2.2) METDTLLLWVLLLWVPGSTGDTSLYKKVGTTGGSLQPDAGNASWNGTEAPGGGARATPYSLQVTLTLVCLAGLLMLLTVFGNVLVIIAVFTSRALKAPQNLFLVSLASADILVATLVIPFSLANEVMGYWYFGKAWCEIYLALDVLFCTSSIVHLCAISLDRYWSITQAIEYNLKRTPRRIKAIIITVWVISAVISFPPLISIEKKGGGGGPQPAEPRCEINDQKWYVISSCIGSFFAPCLIMILVYVRIYQIAKRRTRVPPSRRGPDAVAAPPGGTERRPNGLGPERSAGPGGAEAEPLPTQLNGAPGEPAPAGPRDTDALDLEEGGNVYIKADKQKNGIKANFHIRHNIEDGGVQLAYHYQQNTPIGDGPVLLPDNHYLSVQSKLSKDPNEKRDHMVLLEFVTAAGITLGMDELYKGGTGGSMVRKGEELFTGVVPILVELDGDVNGHKFSVSGEGEGDATYGKLTLKFICTTGKLPVPWPTLVTTLTYGVQCFSRYPDHMKQHDFFKSAMPEGYIQERTIFFKDDGNYKTRAEVKFEGDTLVNRIELKGIDFKEDGNILGHKLEYNTGAAARWRGRQNREKRFKFVLAVVIGVFVVCWFPFFFTYTLTAVGCSVPRTLFKFFFWFGYCNSSLNPVIYTIFNHDFRRAFKKILCRGDRKRIVL",–,~100,20
